What all share (experiment): Primary Screen for Target Class Profiling of Small Molecule Inhibitors of Methyltransferases
Assay [1] concerns the target Glycine N-methyltransferase (Homo sapiens) (UniProt Q14749). The settings on record: purified enzyme, MTase-Glo SAH luminescence; measured here: GNMT inhibition; at 40 µM; stronger effect = lower value. In a few lines: (§1)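 Each enzyme was reacted with SAM and its substrate, with compounds tested once at 40 uM; SAH formed was read by MTase-Glo luminescence.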
In assay [2] the target is Guanidinoacetate N-methyltransferase (Homo sapiens) (UniProt Q14353). The conditions noted are these: purified enzyme, MTase-Glo SAH luminescence; measured here: GAMT inhibition; at 40 µM; stronger effect = lower value. The gist of the method:
as §1

Assay [3] has as its target Histamine N-methyltransferase (Homo sapiens) (UniProt P50135). The settings on record: purified enzyme, MTase-Glo SAH luminescence; measured here: HNMT inhibition; at 40 µM; stronger effect = lower value. The gist of the method: as §1
Assay [4] deals with Nicotinamide N-methyltransferase (Homo sapiens) (UniProt P40261). The settings on record: purified enzyme, MTase-Glo SAH luminescence; measured here: NNMT inhibition; at 40 µM; stronger effect = lower value. In a few lines: as §1
Assay [5] has as its target Phenylethanolamine N-methyltransferase (Homo sapiens) (UniProt P11086). The conditions noted are these: purified enzyme, MTase-Glo SAH luminescence; measured here: PNMT inhibition; at 40 µM; stronger effect = lower value. The gist of the method:
as §1

Some of the results follow. Shown are side measurements of this screen, not its main read-out; they come without a call.
% is scaled to controls: 0 for no effect and ±100 for the full control effect.

`CC(=O)N(C)CCc1noc(C2CN(Cc3c(F)cccc3Cl)C2)n1`: the activity change, negative = inhibition in assay [1] is -6.89%; in assay [2], -0.082%; in assay [3], -1.31%; in assay [4], -1.55%; in assay [5], -22.4%.

In the case of `O=C(c1ccc(F)cc1)N1CCC[C@H](c2nc(-c3ccc(F)cc3)no2)C1`, the activity change, negative = inhibition in assay [2] was -3.55%; in assay [4], -15.7%; in assay [5], -14.4%.

`CCC(C)NC(=O)c1ccc2c(=O)n(CCC(C)C)c3nn(Cc4ccc(Cl)cc4)c(=O)n3c2c1` (stereo not given): the activity change, negative = inhibition in assay [1] was -1.05%; in assay [2] it was 3.57%; in assay [3] it was 1.49%; in assay [4], -0.32%; in assay [5] it was -1.17%.

With `CCCSCCCN1C(=O)c2cc3ccccc3n2CC1(C)C(=O)NC1CCCCCC1` (stereo not given), the activity change, negative = inhibition was 2.37% in assay [1]; 0% in assay [2]; 2.85% in assay [3]; -1.13% in assay [4]; -1.99% in assay [5].

For the molecule `CCOC(=O)c1cc2n(n1)CC(C)(C(=O)NCc1ccccc1)N(CCc1cccs1)C2=O` (stereo not given), the activity change, negative = inhibition is -6.09% in assay [1]; -2.49% in assay [2]; 0.173% in assay [3]; -3.29% in assay [4]; -4.26% in assay [5].

On to `Cc1nn2c(c1-c1ccnn1C(C)C)N(C(=O)COc1ccccc1C(N)=O)CCC2`, for which the activity change, negative = inhibition in assay [1] is -7.94%; in assay [2] it was -7.08%; in assay [3], -4.61%; in assay [4], -9.99%; in assay [5], -6.16%.

Take `CC1CCN(C(=O)CC#N)CC1N(C)c1ncnc2[nH]ccc12` (stereo not given): the activity change, negative = inhibition in assay [1] turned out to be 1.66%; in assay [3], 4.08%.

`Cc1ccc(Cl)cc1N(CC(=O)Nc1c(F)cccc1F)S(C)(=O)=O`: the activity change, negative = inhibition is 7.73% in assay [1]; 3.51% in assay [2]; 10.5% in assay [3]; -10.3% in assay [4]; -0.148% in assay [5].

Take `Cc1cc(C(=O)N[C@@H]2CCC[C@@H](C(=O)NC3CC3)CC(=O)N(C)C2)nn1C`: the activity change, negative = inhibition in assay [1] was 1.06%; in assay [2], 0.796%; in assay [3], -0.512%; in assay [4], 0.8%; in assay [5], -1.55%.

With `C=CC1(C)CC(OC(=O)/C(C)=C\COC(C)=O)C(C(=C)C(=O)O)C(O)C1C(=C)CO` (stereo not given), the activity change, negative = inhibition in assay [1] is 5.79%; in assay [2], 8.42%; in assay [3], 8.41%; in assay [4], -4.95%; in assay [5], 7.5%.

For `CCC(C)NC(=O)c1ccc2c(=O)n(C)c3nnc(SCc4ccc(C)cc4)n3c2c1` (stereo not given), the activity change, negative = inhibition was 5.29% in assay [1]; 0% in assay [2]; 7.42% in assay [3]; 2.43% in assay [4]; 4.83% in assay [5].

For `CCN1CCN(Cc2ccc(NC(=O)c3ccc(C)c(/C=C/c4cnc5[nH]ccc5c4OC)c3)cc2C(F)(F)F)CC1`, the activity change, negative = inhibition in assay [1] was -4.01%; in assay [2], -2.03%; in assay [3] it was -5.92%; in assay [4], -21.5%; in assay [5] it was -3.94%.

`CNC(=O)N1C[C@@H](Oc2ccccc2)C[C@H]1C(=O)NCCOC`: the activity change, negative = inhibition in assay [1] was -0.003%; in assay [2] it was 1.1%; in assay [3], 2.83%; in assay [4], -6.22%; in assay [5], -5.17%.

With `C=C1CCC2[C@](C)(CCC[C@@]2(C)C=O)[C@H]1CC/C(C)=C/CO` (stereo not given in full), the activity change, negative = inhibition in assay [1] is 0%; in assay [2] it was 3.89%; in assay [3], -4.08%; in assay [4], -24.2%; in assay [5], -1.06%.

Consider `COc1ccccc1C(=O)N(Cc1ccccc1)S(=O)(=O)c1ccc2c(c1)n(C)c(=O)n2C`, for which the activity change, negative = inhibition in assay [1] is -0.995%; in assay [2], 4.07%; in assay [3] it was -8.37%; in assay [4] it was -2.3%; in assay [5], -4.12%.

Consider `O=C1CN(Cc2ccccc2)S(=O)(=O)c2ccccc2N1Cc1ccc(F)cc1`, for which the activity change, negative = inhibition turned out to be 9.51% in assay [1]; 0% in assay [2]; 8.37% in assay [3]; 2.21% in assay [4]; 1.57% in assay [5].

On to `Cc1ccc(Cn2c(=O)c3ccc(C(=O)NC(C)C)cc3n3c(=O)n(Cc4ccccc4C)nc23)cc1`, for which the activity change, negative = inhibition in assay [1] amounted to 5.2%; in assay [2], 3.05%; in assay [3], 4.39%; in assay [4] it was 2.62%; in assay [5], 3.49%.

As for `CCCn1c(=O)c2ccc(C(=O)NCC(C)C)cc2n2c(=O)n(CC(=O)Nc3ccc(C)cc3)nc12`, the activity change, negative = inhibition in assay [1] was 2.57%; in assay [2], 0.032%; in assay [3], 3.43%; in assay [4], 2.74%; in assay [5] it was 3.14%.

Regarding `Cn1nnc(-c2ccc(-c3ccc(N4C[C@H](CO)OC4=O)cc3F)cn2)n1`, the activity change, negative = inhibition in assay [1] was -5.07%; in assay [2] it was 4.76%; in assay [3], 7.59%; in assay [4], -7.17%; in assay [5], 4.63%.

As to `CN[C@@H](C)C(=O)N1CC[C@H](NC(=O)Cc2cccs2)C[C@H]1C(=O)N[C@@H](Cc1ccc(OC)cc1)C(N)=O`, the activity change, negative = inhibition is -6.63% in assay [1]; -1.86% in assay [2]; 0.305% in assay [3]; -19.8% in assay [4]; -10.8% in assay [5].

With `C=C(COC(=O)CC(C)C)C1Cc2cc(C(C)=O)ccc2O1` (stereo not given), the activity change, negative = inhibition in assay [1] is 1.23%; in assay [2], 6.25%; in assay [3], 10.5%; in assay [4], -11.9%; in assay [5] it was 2.52%.

With `CC(=O)N1CCC(N[C@@H]2C[C@H](Cn3cc(-c4cccnc4)nn3)[C@@H](O)[C@H]2O)CC1`, the activity change, negative = inhibition is -2.49% in assay [1]; -7.87% in assay [2]; -2.47% in assay [3]; -7.89% in assay [4]; -4.86% in assay [5].

For `Cc1ccccc1NS(=O)(=O)c1ccc2c(c1)n(C)c(=O)n2C`, the activity change, negative = inhibition came out at 1.83% in assay [1]; 0% in assay [2]; 10.5% in assay [3]; 12.4% in assay [4]; 3.88% in assay [5].

Regarding `COCCCNc1ccnc(-c2nnc(C)n2-c2ccccc2)c1`, the activity change, negative = inhibition in assay [1] was -5.98%; in assay [2] it was -1.26%; in assay [3] it was -12.8%; in assay [4], -6.46%; in assay [5], 0.721%.

In the case of `CCOC(=O)c1cc2n(n1)CC(C)(C(=O)NCc1ccc(F)cc1)N(CCc1ccc(Cl)cc1)C2=O` (stereo not given), the activity change, negative = inhibition in assay [1] was -4.18%; in assay [2] it was 1.74%; in assay [3] it was 0.469%; in assay [4] it was -7.39%; in assay [5], -4.48%.

In the case of `Cc1ncccc1OC1(C(=O)O)CCN(C(=O)Cc2ccn(C)c2)CC1`, the activity change, negative = inhibition in assay [1] is -6.56%; in assay [2] it was -5.85%; in assay [3], -3.26%; in assay [4], -4.66%; in assay [5] it was -2.72%.

`O=C(O)CCCC[C@@H]1CCSS1`: the activity change, negative = inhibition in assay [1] was 6.6%; in assay [2], 14.2%; in assay [3], 12.9%; in assay [4] it was -2.38%; in assay [5], 1.5%.

Regarding `Cc1cc(C)n(CCCN(C)C(=O)c2cn(Cc3ccc(F)cc3)nn2)n1`, the activity change, negative = inhibition is -2.69% in assay [1]; -2.04% in assay [2]; 1.46% in assay [3]; -0.272% in assay [4]; 16% in assay [5].

Consider `CN1C(=O)[C@H]2CN(Cc3cn[nH]c3-c3cccs3)C[C@H]2C1=O`, for which the activity change, negative = inhibition in assay [1] was -13.4%; in assay [2] it was -7.38%; in assay [3], -2.17%; in assay [4], -9.72%; in assay [5], -6.42%.

Regarding `Cc1cccc(N2CCN(CCNC(=O)CCc3nnc4n(CCC(C)C)c(=O)c5ccccc5n34)CC2)c1C`, the activity change, negative = inhibition in assay [1] is -2.6%; in assay [2] it was 2.47%; in assay [3] it was 7.49%; in assay [4] it was 9.59%; in assay [5] it was 2.55%.

As to `C[S+](=O)([O-])N1CC2(CCN(Cc3ccc(Cl)cc3)C2)Cc2ccccc21` (stereo not given), the activity change, negative = inhibition in assay [1] is -1.88%; in assay [2] it was -1.33%; in assay [3], -5.84%; in assay [4], -6.58%; in assay [5] it was 1.2%.

Values taken from PubChem BioAssay AID1745853 (National Center for Advancing Translational Sciences (NCATS), 2022).
